In all, about 420,000 compounds went through this assay and about 50,000 (12%) were called active. Inconclusive results, whose numbers are uncertain, are shown with a selection of clear calls. Calls come from the whole dose curve; as a rule, active = well fitted inhibition curve with a large enough effect; inconclusive = small, poorly fitted or top-dose-only effect; inactive = flat fitted curve, though single readings scatter. Potencies of inconclusive entries are left out as doubtful fits.
assay: qHTS for Inhibitors of human tyrosyl-DNA phosphodiesterase 1 (TDP1): qHTS in cells in presence of CPT; conditions: chicken DT40 Tdp1-/-;hTDP1 cells + 20 nM CPT, ATP luminescence, 48 h; series mostly up to 46.2 µM; note: nearly all actives have a fitted effect of over 55% in size
How it was run: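 Cell growth measured by CellTiter-Glo luminescence after a minimum 48 h, 37 C compound exposure with 20 nM CPT in Tdp1-knockout DT40 cells stably expressing hTDP1, seeded 400/well; qHTS titration format.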
Potency is the fitted concentration of half-maximal effect; tags give direction and shape of the fitted curve.

Row | SMILES | Potency
1 | Cc1cc(NC(=O)CSc2nc(C3CC3)nc3sc(C)c(C)c23)no1 | active: 8.2 µM
2 | O=C(O)c1ccc(N/N=C/c2cc3cc4c(cc3nc2Cl)OCCO4)cc1 | inconclusive [inhibitor, partial curve]
3 | Cc1ccc(C(=O)c2oc3ccccc3c2N)cc1 | active: 16.4 µM
4 | COc1ccc(C(=O)Nc2ccc(C(=O)OCC(=O)c3ccccc3)cc2)cc1 | inactive
5 | COc1cc(OC)cc(C(=O)NC(=S)NNC(=O)[C@H]2C[C@@H]2c2ccccc2)c1 | inconclusive [inhibitor, single point]
6 | COc1ccc(C2C=C(c3ccccc3)Nc3nc(NC(=O)c4cccc([N+](=O)[O-])c4)nn32)cc1 (stereo not drawn) | inconclusive [inhibitor, single point]
7 | O=C1[C@@H]2[C@H]3CC[C@H](C3)[C@@H]2C(=O)N1CCCCN1CCN(c2ncccn2)CC1 | inactive
8 | C=CCn1c(SCC(=O)c2[nH]c(C)c(C(=O)OCC)c2C)nc2scc(-c3ccc(OC)c(OC)c3)c2c1=O | active: 14.6 µM
9 | O=C(COC(=O)/C=C/c1ccccc1Cl)NC(=O)NCc1ccccc1 | inconclusive [inhibitor, partial curve]
10 | O=C(CSc1nnc(-c2cnccn2)n1Cc1ccco1)Nc1ccc(Br)cc1 | inconclusive [inhibitor, single point]
11 | CC(=O)Oc1ccc(N(C(C)=O)S(=O)(=O)c2ccc(Cl)cc2)c2ccccc12 | active: 29.1 µM
12 | CC(C)(COP(=O)(O)OP(=O)(O)OC[C@H]1O[C@@H](n2cnc3c(N)ncnc32)[C@H](O)[C@@H]1OP(=O)(O)O)C(O)C(=O)NCCC(=O)NCCS (stereo partly drawn) | inconclusive [inhibitor, single point]
13 | Clc1cccc(N2CCN(c3nc4ccccc4n4nnnc34)CC2)c1 | inconclusive [inhibitor, single point]
14 | COc1cccc(C(CCc2cc(OC)c(OC)c(OC)c2)NC(C)=O)c1 (stereo not drawn) | inactive
15 | COc1ccc(-c2csc(NC(=O)c3cccc(N4C(=O)CCC4=O)c3)n2)cc1C | inconclusive [inhibitor, partial curve]
16 | Cc1ccc(OCC(=O)Nc2cccc(-c3nc4ccccc4s3)c2)cc1 | inconclusive [inhibitor, single point]
17 | O=C(NCCN1CCN(Cc2ccccc2)CC1)c1ccc(CS(=O)(=O)c2ccc(Br)cc2)o1 | inconclusive [inhibitor, single point]
18 | CCCC1NC(=O)c2cc3ccccc3cc2-n2c1nc1ccc(C)cc1c2=O (stereo not drawn) | inconclusive [inhibitor, single point]

— PubChem BioAssay AID686979 (National Center for Advancing Translational Sciences (NCATS), 2013)
